We go through 31 sequences from publication PMC12820563.

The list shows a part of the results. The list includes weakly bound sequences.

In the experiment the target is T1, MBP-FoxP3dN (UniProt Q99JB6).
T1 sequence: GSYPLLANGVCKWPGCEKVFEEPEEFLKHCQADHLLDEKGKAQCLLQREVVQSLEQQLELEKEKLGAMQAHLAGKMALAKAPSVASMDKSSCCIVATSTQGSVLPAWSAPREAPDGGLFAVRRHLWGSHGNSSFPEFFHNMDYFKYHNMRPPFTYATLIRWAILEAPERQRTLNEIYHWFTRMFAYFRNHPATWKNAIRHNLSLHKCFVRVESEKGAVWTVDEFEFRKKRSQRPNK
The experiment in a line: PD-seq (MBP pull-down with sequencing). The following applies: 20 mM Tris-HCl pH 7.5, 100 mM NaCl, 1.5 mM MgCl2, 0.4 uM protein, 0.1 uM dsDNA library, 30 min, room temperature, amylose pull-down; high values mean tight binding; double strand, one strand shown.
For “GATGATTGTTCTCCCAGCTGATGAATTAACCACCTCGAGTAAACAAATTTTCCTAATCTTTCTGTTCAAGCGCCATCTAC”, the binding signal (RPM ratio (pull-down/input)) amounted to 0.271. Consider “GATGATTGTTCTCCCAGCTGATGAATTTAATTATTCGAGTAAACAAATTTTCCTAATCTTTCTGTTCAAGCGCCATCTAC”, for which the binding signal (RPM ratio (pull-down/input)) was determined as 3.6. Then “GATGATTGTTCTCCCAGCTGATGAATTCATTTTTTCGAGTAAACAAATTTTCCTAATCTTTCTGTTCAAGCGCCATCTAC”, with 0.983; and “GATGATTGTTCTCCCAGCTGATGAATTTGCAAACTCGAGTAAACAAATTTTCCTAATCTTTCTGTTCAAGCGCCATCTAC”, with 0.673. Consider “GATGATTGTTCTCCCAGCTGATGAATTAAATATTTCGAGTAAACAAATTTTCCTAATCTTTCTGTTCAAGCGCCATCTAC”, for which the binding signal (RPM ratio (pull-down/input)) amounted to 0.666. Then “GATGATTGTTCTCCCAGCTGATGAATTGTGTCATTCGAGTAAACAAATTTTCCTAATCTTTCTGTTCAAGCGCCATCTAC”, with 4.91; and “GATGATTGTTCTCCCAGCTGATGAATTTAATACGTCGAGTAAACAAATTTTCCTAATCTTTCTGTTCAAGCGCCATCTAC”, with 0.538; and “GATGATTGTTCTCCCAGCTGATGAATTCCGCATCTCGAGTAAACAAATTTTCCTAATCTTTCTGTTCAAGCGCCATCTAC”, with 6.95. The value for “GATGATTGTTCTCCCAGCTGATGAATTTAACGAGTCGAGTAAACAAATTTTCCTAATCTTTCTGTTCAAGCGCCATCTAC” was 0.208; that for “GATGATTGTTCTCCCAGCTGATGAATTAGGCCTTTCGAGTAAACAAATTTTCCTAATCTTTCTGTTCAAGCGCCATCTAC” was 4.1; that for “GATGATTGTTCTCCCAGCTGATGAATTTCTGCCCTCGAGTAAACAAATTTTCCTAATCTTTCTGTTCAAGCGCCATCTAC” was 0.382.

Regarding “GATGATTGTTCTCCCAGCTGATGAATTTATTGCTTCGAGTAAACAAATTTTCCTAATCTTTCTGTTCAAGCGCCATCTAC”, the binding signal (RPM ratio (pull-down/input)) was 3.88.

As to “GATGATTGTTCTCCCAGCTGATGAATTAAAGCGCTCGAGTAAACAAATTTTCCTAATCTTTCTGTTCAAGCGCCATCTAC”, the binding signal (RPM ratio (pull-down/input)) came to 0.568. Take “GATGATTGTTCTCCCAGCTGATGAATTATTCCATTCGAGTAAACAAATTTTCCTAATCTTTCTGTTCAAGCGCCATCTAC”: the binding signal (RPM ratio (pull-down/input)) was 0.434. The value for “GATGATTGTTCTCCCAGCTGATGAATTGGGACTATCGAGTAAACAAATTTTCCTAATCTTTCTGTTCAAGCGCCATCTAC” was 0.579; that for “GATGATTGTTCTCCCAGCTGATGAATTGAGTTACTCGAGTAAACAAATTTTCCTAATCTTTCTGTTCAAGCGCCATCTAC” was 1.19; that for “GATGATTGTTCTCCCAGCTGATGAATTCCCGTACTCGAGTAAACAAATTTTCCTAATCTTTCTGTTCAAGCGCCATCTAC” was 0.344. Then “GATGATTGTTCTCCCAGCTGATGAATTTCCCCAGTCGAGTAAACAAATTTTCCTAATCTTTCTGTTCAAGCGCCATCTAC”, with 0.146.

For the sequence “GATGATTGTTCTCCCAGCTGATGAATTCGATAACTCGAGTAAACAAATTTTCCTAATCTTTCTGTTCAAGCGCCATCTAC”, the binding signal (RPM ratio (pull-down/input)) amounted to 0.403. The value for “GATGATTGTTCTCCCAGCTGATGAATTAACAACATCGAGTAAACAAATTTTCCTAATCTTTCTGTTCAAGCGCCATCTAC” was 2.67; that for “GATGATTGTTCTCCCAGCTGATGAATTGGCAAGTTCGAGTAAACAAATTTTCCTAATCTTTCTGTTCAAGCGCCATCTAC” was 0.405. As to “GATGATTGTTCTCCCAGCTGATGAATTTAAATTGTCGAGTAAACAAATTTTCCTAATCTTTCTGTTCAAGCGCCATCTAC”, the binding signal (RPM ratio (pull-down/input)) worked out at 0.654. Then “GATGATTGTTCTCCCAGCTGATGAATTATAGGGCTCGAGTAAACAAATTTTCCTAATCTTTCTGTTCAAGCGCCATCTAC”, with 0.325; and “GATGATTGTTCTCCCAGCTGATGAATTACGGGTGTCGAGTAAACAAATTTTCCTAATCTTTCTGTTCAAGCGCCATCTAC”, with 0.873. The value for “GATGATTGTTCTCCCAGCTGATGAATTTCTCAAGTCGAGTAAACAAATTTTCCTAATCTTTCTGTTCAAGCGCCATCTAC” was 0.167; that for “GATGATTGTTCTCCCAGCTGATGAATTTGGTAAGTCGAGTAAACAAATTTTCCTAATCTTTCTGTTCAAGCGCCATCTAC” was 0.454. As to “GATGATTGTTCTCCCAGCTGATGAATTGTCCAGCTCGAGTAAACAAATTTTCCTAATCTTTCTGTTCAAGCGCCATCTAC”, the binding signal (RPM ratio (pull-down/input)) is 0.249. As for “GATGATTGTTCTCCCAGCTGATGAATTCTGTTAATCGAGTAAACAAATTTTCCTAATCTTTCTGTTCAAGCGCCATCTAC”, the binding signal (RPM ratio (pull-down/input)) was determined as 1.25.

Take “GATGATTGTTCTCCCAGCTGATGAATTTGTCGGCTCGAGTAAACAAATTTTCCTAATCTTTCTGTTCAAGCGCCATCTAC”: the binding signal (RPM ratio (pull-down/input)) is 2.24. In the case of “GATGATTGTTCTCCCAGCTGATGAATTTTCCCCTTCGAGTAAACAAATTTTCCTAATCTTTCTGTTCAAGCGCCATCTAC”, the binding signal (RPM ratio (pull-down/input)) amounted to 0.214. As to “GATGATTGTTCTCCCAGCTGATGAATTCAGGTTTTCGAGTAAACAAATTTTCCTAATCTTTCTGTTCAAGCGCCATCTAC”, the binding signal (RPM ratio (pull-down/input)) amounted to 0.569.
